From PubChem BioAssay AID1030 (National Center for Advancing Translational Sciences (NCATS), 2008)
The campaign covered roughly 220,000 compounds. About 16,000 (7.3%) were called active. Inconclusive means that the source gave no clear call. Such entries were picked first, then a sample of the others. Calls follow the shape of the dose curve; as a rule, active = well fitted inhibition curve with a large enough effect (not every such curve was filed as active); inconclusive = small, poorly fitted or top-dose-only effect, or another doubt; inactive = no such curve, though single readings can be large or run the other way. Potencies of inconclusive entries are left out as doubtful fits.
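For activity, negative = inhibition in this document: plate controls were no enzyme wells and a reference inhibitor.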
Potency is read from the fitted curve at half-maximal effect; tags tell the direction and shape of the fitted curve.

The compounds below were run against Aldehyde dehydrogenase 1A1 (Homo sapiens) (UniProt P00352) (assay: qHTS Assay for Inhibitors of Aldehyde Dehydrogenase 1 (ALDH1A1)). Conditions: Purified ALDH1A1, NADH fluorescence, propionaldehyde substrate; series mostly up to 75.3 µM.
UniProt P00352, sequence (P00352 whole entry, looked up): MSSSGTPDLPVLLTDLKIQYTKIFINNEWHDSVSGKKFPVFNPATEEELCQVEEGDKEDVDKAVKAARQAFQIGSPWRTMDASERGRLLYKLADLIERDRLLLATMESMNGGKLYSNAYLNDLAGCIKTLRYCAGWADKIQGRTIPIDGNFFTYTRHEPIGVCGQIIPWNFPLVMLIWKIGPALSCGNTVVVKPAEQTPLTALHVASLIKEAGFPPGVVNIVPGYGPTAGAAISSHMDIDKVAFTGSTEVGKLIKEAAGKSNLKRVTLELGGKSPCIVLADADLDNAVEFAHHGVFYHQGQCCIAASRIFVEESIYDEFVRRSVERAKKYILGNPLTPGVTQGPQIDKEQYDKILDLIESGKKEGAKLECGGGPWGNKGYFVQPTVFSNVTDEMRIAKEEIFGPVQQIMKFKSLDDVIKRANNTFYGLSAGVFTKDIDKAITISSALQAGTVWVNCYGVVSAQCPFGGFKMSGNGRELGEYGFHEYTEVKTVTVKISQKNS
With `COc1cccc(-c2nc(-c3ccc4c(c3)NC(=O)CO4)cs2)c1` the Potency was active: 20 µM. `COc1cccc(-c2[nH]nc3c2C(c2ccoc2)C(C#N)=C(N)O3)c1` (centres undefined) was tested, and the Potency was active: 12.6 µM. With `CCOc1ccc(C(=O)OCC(=O)Nc2ccc(SC(F)F)cc2)cc1OCC` the Potency was “inactive”. In the case of `CC(=C/c1ccccc1)/C=N/n1c(-c2ccncc2)n[nH]c1=S`, the Potency is reported as inconclusive [inhibitor, single point]. With `CCN(CC)c1ccc(/C=N/NC(=O)Cc2nnc(NC(=O)Nc3ccccc3)s2)cc1` the Potency was inconclusive [inhibitor, single point]. For `COc1ccc(Br)cc1CNc1ccc(O)cc1`, the Potency was active: 10 µM. With `O=C(Nc1ccccc1)N1CC2(CCN(C(=O)c3ccncc3)CC2)C1` the Potency was “inactive”. In the case of `CN(C)C(=O)c1ccc(-c2nc(N(C)Cc3ccco3)c3ccccc3n2)cc1`, the Potency is reported as inconclusive [inhibitor, single point]. `COc1ccc(OCCSc2nnc(-c3cccnc3)n2N)cc1` was tested, and the Potency was inconclusive [inhibitor, single point]. In the case of `COC(=O)c1cccc(S(=O)(=O)N(Cc2ccco2)Cc2cc3cc(OC)c(OC)cc3[nH]c2=O)c1`, the Potency is reported as inconclusive [inhibitor, partial curve]. `c1ccc(-c2nnc(CSc3nncs3)o2)cc1` was tested, and the Potency was “inactive”. In the case of `CC(CCCC(C)(C)O)CC1C2=C(CCCC2=O)OC2=C1C(=O)CCC2` (centres undefined), the Potency is reported as “inactive”. `NC(=O)[C@@H]1CCCN1Cc1nc(Cc2ccccc2Cl)no1` was tested, and the Potency was “inactive”. With `CCOC(=O)C1(Cc2ccccc2)CCCN(Cc2cccc(C(C)=O)c2)C1` (centres undefined) the Potency was inconclusive [inhibitor, single point]. `COc1ccc(C2(C(=O)Nc3ccc(OC)cc3OC)CCCC2)cc1` was tested, and the Potency was inconclusive [inhibitor, single point]. `CCSC1(SCC)N=C(N)C2(C#N)C(c3ccc(OC)c(OC)c3OC)C12C#N` (centres undefined) was tested, and the Potency was inconclusive [inhibitor, partial curve]. `O=C(O)c1cc(S(=O)(=O)NCc2ccco2)c(Cl)cc1Cl` was tested, and the Potency was active: 20 µM. In the case of `NC(=O)CC[C@H](NC(=O)c1ccc(F)cc1)C(=O)OCC(=O)Nc1ccc(N2CCOCC2)cc1`, the Potency is reported as active: 11.2 µM. In the case of `COCc1cc(N2CCN(c3ccccc3F)CC2)nc(-c2ccccc2)n1`, the Potency is reported as inconclusive [inhibitor, partial curve]. `COc1ccc(Oc2ncc3nc(CCc4ccccc4)c(=O)n(C[C@H]4CCCO4)c3n2)cc1` was tested, and the Potency was inconclusive [inhibitor, single point]. With `CCCN(C(=O)c1ccco1)c1nnc(-c2ccccc2C)s1` the Potency was active: 8.91 µM. For `Cc1ccc(NC(=O)CN2CCCCCC2)cc1[N+](=O)[O-]`, the Potency was “inactive”. For `c1ccc(OCCCCN2CCOCC2)cc1`, the Potency was “inactive”. `CCCCSCCCNC(=O)Nc1ccc(C)c(C)c1` was tested, and the Potency was inconclusive [inhibitor, single point]. With `COc1cc(OC)c(OC)cc1/C=N/N(C)c1ccccc1` the Potency was “inactive”. `Cn1cc(-c2ccccc2C(N)=O)c(=O)c2cc(Cl)ccc21` was tested, and the Potency was “inactive”. In the case of `COc1cccc(C(=O)N/N=C/C(Br)=C/c2ccccc2)c1`, the Potency is reported as “inactive”. `CSc1ccccc1NC(=O)c1cnc2n(c1=O)CCS2` was tested, and the Potency was inconclusive [inhibitor, single point]. For `O=c1c(Cl)c(Cl)cnn1Cc1nnc(-c2ccc(Cl)cc2)o1`, the Potency was active: 8.91 µM. In the case of `COc1ccc(C(=O)NC(=S)Nc2cccnc2)cc1OC`, the Potency is reported as inconclusive [inhibitor, single point]. `Cc1ccc(S(=O)(=O)C2(C(=O)NC3CCCC3)CC2)cc1` was tested, and the Potency was inconclusive [inhibitor, single point]. `Cc1nc2sc(C(c3ccco3)N3CCN(c4ccccc4)CC3)c(O)n2n1` (centres undefined) was tested, and the Potency was inconclusive [inhibitor, single point]. With `O=C(CC1NCCNC1=O)Nc1ccc(Cl)c(Cl)c1` (centres undefined) the Potency was “inactive”. `COc1ccc(NS(=O)(=O)c2ccc(NC(=S)NC(=O)c3cccnc3)cc2)nn1` was tested, and the Potency was active: 15 µM. For `CCn1cc(C2=NCC(C)O2)c2ccccc21` (centres undefined), the Potency was inconclusive [inhibitor, single point]. In the case of `O=C(NCCCn1ccnc1)c1ccc(S(=O)(=O)N2CCOCC2)cc1`, the Potency is reported as “inactive”. With `CCCCN(C(=O)CNC(=O)c1ccco1)C(C(=O)NC1CCCC1)c1ccc(OC)cc1` (centres undefined) the Potency was “inactive”. `CCCCOC1CC(c2ccc(OCc3ccc(OC)cc3)c(OC)c2)N(C)O1` (centres undefined) was tested, and the Potency was “inactive”. In the case of `COc1ccc(C2CC(c3ccc4ccccc4c3)=NN2C(=O)CN2CCC(C(N)=O)CC2)cc1` (centres undefined), the Potency is reported as inconclusive [inhibitor, partial curve]. For `CCN(CC)C(=O)CN(C#N)c1nc(C)cc(C)n1`, the Potency was “inactive”. In the case of `c1ccc(CNc2nc(-c3cccnc3)nc3ccccc23)cc1`, the Potency is reported as inconclusive [inhibitor, partial curve]. `CCC(C)(C)n1nnnc1C(c1cccc(C#N)c1)N1CCN(c2cccc(C)c2C)CC1` (centres undefined) was tested, and the Potency was “inactive”. In the case of `Cc1ccc(S(=O)(=O)C/N=C(/NC(=S)N(c2ccccc2)c2ccccc2)c2ccccc2)cc1`, the Potency is reported as active: 14.1 µM. `Cc1ccc2cc(CN(c3ccc(C)c(C)c3)S(C)(=O)=O)c(=O)[nH]c2c1` was tested, and the Potency was inconclusive [inhibitor, partial curve]. For `CN(C)S(=O)(=O)c1cccc(NC(=O)COC(=O)/C=C/c2ccc(Br)o2)c1`, the Potency was active: 8.91 µM. `C#CCn1c(=NC(=O)c2cccs2)sc2cccc(OC)c21` was tested, and the Potency was inconclusive [inhibitor, partial curve]. For `CC1CCCCC1NC(=O)CN1C(=O)CSc2cc(S(=O)(=O)N3CCCCCC3)ccc21` (centres undefined), the Potency was inconclusive [inhibitor, single point]. For `CC(C)c1ccc(/C(C(=O)O)=C(\O)C(=O)O)cc1`, the activity, negative = inhibition was inactive: 1.86% [at 13.5 µM]. In the case of `CCOc1cc(/C=N/N=C(\N)c2nonc2N)cc(Br)c1OCc1cccc2ccccc12`, the Potency is reported as “inactive”. In the case of `CN(C)C=Nc1ncc2c3ccccc3n(Cc3ccccc3)c2c1C#N`, the Potency is reported as inconclusive [inhibitor, single point]. With `O=C(O)c1cccc(S(=O)(=O)Nc2ccc(O)cc2Sc2nc3ccccc3s2)c1` the Potency was active: 22.4 µM. With `CCOc1ccc(NC(=O)C2CCN(c3nnnn3-c3ccccc3)CC2)cc1` the Potency was active: 12.6 µM. With `COC(=O)c1sc2ccccc2c1N` the Potency was inconclusive [inhibitor, partial curve]. `O=C(COc1ccccc1)N1CCN(S(=O)(=O)c2cccc([N+](=O)[O-])c2)CC1` was tested, and the Potency was “inactive”. For `CN1CCN(c2ccc(NC(=O)c3ccc(-c4cccc([N+](=O)[O-])c4)o3)cc2)CC1`, the Potency was “inactive”. `CCc1ccc(NC(=O)CSc2nc3n[nH]c(C)c3c(=N)n2-c2cccc(OC)c2)cc1` was tested, and the Potency was inconclusive [inhibitor, partial curve]. In the case of `O=C(NCC1CCCO1)/C(=C\c1ccco1)NC(=O)c1ccccc1` (centres undefined), the Potency is reported as inconclusive [inhibitor, single point]. For `CC1CCCCN1CC(=O)NCc1ccc2c(c1)OCO2` (centres undefined), the Potency was inconclusive [inhibitor, single point]. In the case of `C[C@H](O)CO[C@H]1[C@H]2O[C@H]3[C@H](O)[C@@H](O)[C@@H](O[C@H]4[C@H](O)[C@@H](O)[C@@H](O[C@H]5[C@H](O)[C@@H](O)[C@@H](O[C@H]6[C@H](O)[C@@H](OC[C@H](C)O)[C@@H](O[C@H]7[C@H](O)[C@@H](OC[C@H](C)O)[C@@H](O[C@H]8[C@H](O)[C@@H](O)[C@@H](O[C@@H]([C@@H]1O)[C@@H](CO)O2)O[C@@H]8CO)O[C@@H]7CO)O[C@@H]6CO)O[C@@H]5CO)O[C@@H]4CO)O[C@@H]3CO`, the Potency is reported as “inactive”. `Cc1ccc(N=C2NC(=O)CS2)cc1` was tested, and the Potency was “inactive”. In the case of `CCNc1nc(=S)nc(NCc2ccccc2)[nH]1`, the Potency is reported as “inactive”. `Cc1ccc(N2CCCCn3c2nc2c3c(=O)n(CC(=O)O)c(=O)n2C)cc1` was tested, and the Potency was “inactive”. With `NC(=O)CC(NC(=S)NCc1ccccc1)C(=O)O` (centres undefined) the Potency was inconclusive [inhibitor, single point]. `COc1ccc(C2CC(=O)c3ccccc3O2)cc1` (centres undefined) was tested, and the Potency was “inactive”. In the case of `O=C1/C(=C/c2ccc(N3CCOCC3)o2)SC(=Nc2ccccc2)N1CCc1c[nH]c2ccccc12`, the Potency is reported as inconclusive [inhibitor, single point]. For `CCN(CC)S(=O)(=O)c1cc(NC(=O)CNc2c(C)n(C)n(-c3ccccc3)c2=O)ccc1C`, the Potency was inconclusive [inhibitor, single point]. In the case of `CCOC(=O)c1c(NC(=O)CSc2nnc(CNc3ccc(OC)cc3)n2C)sc(C)c1C`, the Potency is reported as inconclusive [inhibitor, partial curve]. With `CCC(=O)NNc1nc2c(Cl)cccc2s1` the Potency was “inactive”. `COc1ccc(/C=N/NC(=O)CNC(=O)c2cccs2)cc1` was tested, and the Potency was “inactive”. In the case of `Cc1ccc(-c2cc(C(F)F)nc(S(C)(=O)=O)n2)cc1`, the Potency is reported as inconclusive [inhibitor, single point]. With `O=C(O)c1cc(NCc2ccccc2)ccc1N1CCOCC1` the Potency was inconclusive [inhibitor, single point]. For `Cc1csc(NC(=O)/C=C/c2ccc(C)o2)n1`, the Potency was inconclusive [inhibitor, partial curve]. With `Nc1c(C(=O)c2ccccc2)sc2c1c(=O)[nH]c(=O)n2-c1ccccc1` the Potency was inconclusive [inhibitor, single point]. For `CCC1SC(CC)C(=O)N(CC(=O)NCc2ccc(F)cc2)C1=O` (centres undefined), the Potency was inconclusive [inhibitor, single point].
